# Out of some 190,000 compounds screened, about 520 (0.27%) were called active. The shares of active, inactive and inconclusive entries below differ from those in the screen.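 How the source made its calls: active means GTP binding activity at least 20 points away from the 100% control level, either lower or higher; inconclusive means compound flagged as likely green fluorescent, judged across all proteins; inactive means the rest.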
# Molecular target: Ras-related C3 botulinum toxin substrate 1 (Homo sapiens) (UniProt P63000)
# Assay: wildtype Rac1 GTP binding modulators, primary screen, biochemical, GST-Rac1 beads, flow cytometry, multiplex (AID 757)
# Conditions: fluorescent GTP binding, at 10 µM, actives lie on both sides, 0 = cold GTP competed, 100 = untreated
row,SMILES,GTP binding activity (% of control)
1,CCOC(=O)CC1COCCN1Cc1cn(C)nc1-c1ccccc1F (stereo not given),inactive: 100%
2,CC1CCCCN1S(=O)(=O)c1ccc(C(=O)Nc2nnc(-c3ccccn3)o2)cc1 (stereo not given),inactive: 92%
3,O=C(NNc1nc(-c2ccccc2)c2cc(Br)ccc2n1)c1ccc(S(=O)(=O)N2CCOCC2)cc1,active: 67%
4,C=CCOc1c(OC)cc(Cl)cc1C1NC(=O)NC(C)=C1C(C)=O (stereo not given),inconclusive: 90%
5,CCN(CC)c1nc(=S)nc(NC(C)(C)C)[nH]1,inactive: 102%
6,Nn1c(SCc2nc3ccccc3[nH]2)nnc1-c1ccccc1,inconclusive: 91%
7,Nc1nc2c(c(=O)[nH]1)C(c1cccc3ccccc13)C1=C(N2)c2ccccc2C1=O (stereo not given),active: 74%
8,CCN(CC)S(=O)(=O)c1ccc(C(=O)NCc2cccs2)cc1,inconclusive: 90%
9,COc1ccc(N(CC(=O)Nc2ccc3c(c2)OCO3)S(=O)(=O)c2ccc(C)cc2)cc1OC,inconclusive: 105%
10,COc1cc(/C=N/NS(=O)(=O)c2ccccc2)ccc1OS(=O)(=O)c1ccc(C)cc1,inconclusive: 102%
11,COc1ccc2nc(N3CCCC3)c(C#N)cc2c1,inconclusive: 94%
12,O=CN1CCCN(Cc2nc(-c3cccc(Cl)c3)no2)CC1,inactive: 101%
13,Cc1cccc(N2CN(Cc3ccco3)CNC2=S)c1,inactive: 105%
14,CCOC(=O)c1nn(-c2ccc(F)cc2)c(C)c1C(C)=O,inconclusive: 104%
15,CC1CCN(CCCOc2ccc(Br)cc2Cl)CC1,inconclusive: 99%
16,Cc1ccc2[nH]c(C(=O)NN=C3CCCCC3)c(-c3ccccc3)c2c1,inactive: 100%
17,Cc1ccc2oc3c(c(=O)c2c1)C(c1ccc(F)cc1)N(CCCN1CCOCC1)C3=O (stereo not given),inconclusive: 108%
18,COc1cc2c(C)nc3onc(-c4ccccc4)c3c2cc1OC,inconclusive: 89%
19,O=C(O)CSc1ccc2nnc(-c3cccnc3)n2n1,active: 78%
20,O=C(c1cccc2ccccc12)N1CCN(c2ccccc2F)CC1,inconclusive: 104%
21,S=C(NCc1ccccc1)N1CCn2cccc2C1c1cccnc1 (stereo not given),inactive: 97%
22,COc1ccc(C)cc1S(=O)(=O)N(C)CC(=O)NC1CC1,inconclusive: 100%
23,CC(OCC(O)CN(C)Cc1nc2ccccc2c(=O)[nH]1)c1ccc(Cl)cc1 (stereo not given),inactive: 94%

row,SMILES,GTP binding activity (% of control)
1,O=C(NC1CCCCC1)C(c1ccc(F)cc1)N(Cc1ccco1)C(=O)CN1C(=O)c2ccccc2S1(=O)=O (stereo not given),inactive: 100%
2,O=C(Cn1nnc(-c2ccccc2)n1)NNC(=O)c1ccc(Br)cc1,inconclusive: 93%
3,COc1cc(NC(=O)CSc2nnc3c(n2)[nH]c2ccc(S(=O)(=O)NC(C)C)cc23)cc(OC)c1OC,inactive: 94%
4,O=C1CC(c2cccs2)CC2=C1C(c1ccccc1)n1ncnc1N2 (stereo not given),inconclusive: 115%
5,COC(=O)c1sccc1NC(=O)Cn1cnc2c1c(=O)n(C)c(=O)n2C,inconclusive: 109%
6,Cc1ccc(-c2[nH]nc(N)c2N=Nc2cccc(Cl)c2C)cc1,inconclusive: 94%
7,O=C(NCCc1ccccc1)C1CCC(CNc2nc(=S)[nH]c3ccccc23)CC1 (stereo not given),inactive: 96%
8,CC(=O)/C(N)=N/Nc1cccc(Cl)c1,inconclusive: 99%
9,O=C(N/N=C/c1ccc(OCc2ccccc2)cc1)c1cccs1,inconclusive: 92%
10,CCn1c(C)c(CS(=O)(=O)c2ccccc2)[nH]c1=O,inactive: 102%
11,COc1ccc(NC(=O)c2cc3nc(-c4ccccc4)cc(C)n3n2)cc1OC,active: 78%
12,Cn1c(=O)[nH]c(=O)c2c1nc1n2CCN1Cc1ccccc1,inconclusive: 84%
13,Cc1cccc(CN2CCN(C(=O)CCl)CC2)c1,inactive: 107%
14,CSc1ncccc1C(=O)Nc1ccc(S(=O)(=O)NC2=NCCCCC2)cc1,inconclusive: 106%
15,COc1cccc(N2CC(O)=C(c3ccccc3)C2=N)c1,inactive: 91%
16,CCC(C)Sc1nc2c(c(=O)[nH]1)C(c1cccs1)C1=C(CCCC1=O)N2 (stereo not given),inconclusive: 91%
17,CCOc1c2ccc(C(=O)N[C@H](C)C3CCCCC3)cc2nn1CCOC,inconclusive: 133%
18,CCCCCc1c(O)nc(SCC(=O)NCC2CCCO2)[nH]c1=O (stereo not given),inactive: 102%
19,Cc1cc(C(=O)COC(=O)CCC(=O)c2ccc3c(c2)OCCO3)c(C)n1Cc1ccco1,inconclusive: 91%
20,Cc1cc(C)cc(OCC(=O)Nc2nonc2NC(=O)COc2cc(C)cc(C)c2)c1,inactive: 97%
21,Cn1c(SCc2cc(=O)[nH]c3ccccc23)nnc1-c1ccco1,inconclusive: 105%
22,COC(=O)c1cc2occc2n1Cc1c(F)cccc1Cl,inconclusive: 91%
